Measured values: patent publication US20050192224A1 (Ablynx, published 2005)

Assays:
[1] = molecular target: T1, GpIbα (mt) M239V residues 1-290 with C-terminal Arg-(His)6 (human, UniProt P07359 17-306, sulfation at 0, 1, 2 or 3 sites, likely tyrosine residues in the anionic region; which sulfation form was used in Biacore is not stated); test: Biacore kinetic analysis; rate constants not given
T1 chain: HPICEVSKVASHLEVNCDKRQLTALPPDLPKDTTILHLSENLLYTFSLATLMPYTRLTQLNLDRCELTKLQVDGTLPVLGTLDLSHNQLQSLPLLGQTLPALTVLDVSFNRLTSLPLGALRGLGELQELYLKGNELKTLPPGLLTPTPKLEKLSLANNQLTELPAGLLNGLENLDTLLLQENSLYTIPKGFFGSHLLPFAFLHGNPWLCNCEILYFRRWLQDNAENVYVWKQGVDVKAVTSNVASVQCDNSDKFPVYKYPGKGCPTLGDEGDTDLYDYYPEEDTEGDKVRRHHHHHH

[2] = molecular target: T2, GpIbα (wt) residues 1-290 with C-terminal Arg-(His)6 (human, UniProt P07359 17-306, sulfation at 0, 1, 2 or 3 sites, likely tyrosine residues in the anionic region; which sulfation form was used in Biacore is not stated); test: Biacore 2000, GpIbα 1-290 captured on immobilized antibody 2D4, A1 5-100 nM as analyte, 25° C., 1:1 Langmuir model; SD 14.0
T2 construct: Expressed in BHK cells and secreted; also called GpIbα 1-290; wild-type GpIbα (1-290)

[3] = molecular target: T3, GpIbα (wt) residues 1-269 with C-terminal (His)6 (human, UniProt P07359 17-285); test: Biacore 2000, GpIbα 1-269 captured on immobilized antibody 2D4, A1 5-100 nM as analyte, 25° C., 1:1 Langmuir model; SD 14.4
T3 construct: Lacks the anionic region; also called GpIbα 1-269

[4] = molecular target: T1, GpIbα (mt) M239V residues 1-290 with …; test: Biacore, GpIbα 1-290 captured on 2D4
[5] = molecular target: T4, GpIbα (mt) M239V residues 1-269 with C-terminal (His)6 (human, UniProt P07359 17-285, M239V); test: Biacore 2000, GpIbα 1-269 captured on immobilized antibody 2D4, A1 5-100 nM as analyte, 25° C., 1:1 Langmuir model; SD 2.7
T4 construct: also called GpIbα 1-269

[6] = molecular target: T1, GpIbα (mt) M239V residues 1-290 with …; test: Biacore 2000, GpIbα 1-290 captured on immobilized antibody 2D4, A1 5-100 nM as analyte, 25° C., 1:1 Langmuir model; SD 2.1
[7] = molecular target: T4, GpIbα (mt) M239V residues 1-269 with …; test: Biacore 2000, GpIbα 1-269 captured on immobilized antibody 2D4, A1 5-100 nM as analyte, 25° C., 1:1 Langmuir model; SD 2.2
[8] = molecular target: T1, GpIbα (mt) M239V residues 1-290 with …; test: Biacore 2000, GpIbα 1-290 captured on immobilized antibody 2D4, A1 5-100 nM as analyte, 25° C., 1:1 Langmuir model; SD 1.6
[9] = molecular target: T2, GpIbα (wt) residues 1-290 with …; test: Biacore, GpIbα 1-290 captured on 2D4
[10] = molecular target: T3, GpIbα (wt) residues 1-269 with …; test: Biacore 2000, GpIbα 1-269 captured on immobilized antibody 2D4, A1 5-100 nM as analyte, 25° C., 1:1 Langmuir model; SD 3.14
[11] = molecular target: T2, GpIbα (wt) residues 1-290 with …; test: Biacore 2000, GpIbα 1-290 captured on immobilized antibody 2D4, A1 5-100 nM as analyte, 25° C., 1:1 Langmuir model; SD 3.5

fold increase in the association rate against wild-type GpIbα [1]: 3 fold
Kd [2]: 33.3 nM
Kd [3]: 38.4 nM
fold increase in affinity against GpIbα (wt) + A1 (wt) [4]: 3 fold
Kd [5]: 12.6 nM
Kd [6]: 11.1 nM
B1: Wild-type vWF-A1 domain […] (ligand)
chain: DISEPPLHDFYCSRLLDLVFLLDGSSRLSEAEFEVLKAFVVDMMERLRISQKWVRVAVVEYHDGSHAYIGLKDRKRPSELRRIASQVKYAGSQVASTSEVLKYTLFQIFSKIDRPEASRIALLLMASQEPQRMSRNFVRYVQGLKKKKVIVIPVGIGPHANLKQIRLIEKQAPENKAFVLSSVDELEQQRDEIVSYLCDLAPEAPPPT
notes: Expressed in Pichia pastoris GS115 from pPIC9; also called A1(wt); wt-A1

Kd [7]: 7.5 nM
Kd [8]: 5.8 nM
fold increase in affinity against GpIbα (wt) + A1 (wt) [4]: 5.7 fold
fold increase in affinity against GpIbα (wt) + A1 (wt) [9]: 2.5 fold
Kd [10]: 16.5 nM
Kd [11]: 13.6 nM
B2: Mutant vWF-A1 R543Q, […] (ligand)
chain: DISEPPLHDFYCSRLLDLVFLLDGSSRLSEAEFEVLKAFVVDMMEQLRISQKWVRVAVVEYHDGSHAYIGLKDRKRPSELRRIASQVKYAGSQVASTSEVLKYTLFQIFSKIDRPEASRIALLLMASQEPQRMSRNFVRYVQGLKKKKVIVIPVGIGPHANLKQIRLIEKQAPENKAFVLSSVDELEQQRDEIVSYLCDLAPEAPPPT
notes: also called A1(mt); A1 mutant (R543Q)

One block for each binder: values may come before it.
